A word on the % Inhibition: it is the drop in the measured response relative to a control, in per cent.

Data on 23 compounds can be found in ChEMBL document CHEMBL4888484, “Replenishing the malaria drug discovery pipeline: Screening and hit evaluation of the MMV Hit Generation Library 1 (HGL1) against asexual blood stage Plasmodium falciparum ,using a nano luciferase reporter read-out” (2022).

The campaign covered roughly 150,000 compounds. About 540 (0.36%) showed an effect of 50% or more. The list shows a part of the results.

This test relates to Plasmodium falciparum. As to the kind of experiment: Primary screen in NF54 nanoGlo assay, in single point, at 2uM, 72h; a lower Z score goes with more inhibition. Type of test: functional, Erythrocyte. The following applies: timepoint 72 hour.
Regarding `COC(=O)[C@](C)(CO)NCc1ccc(F)c(C)c1`, the “% Inhibition” value is recorded as 19% and the Z score is on record as -2.37.
Take `CCn1ncc(Cl)c1C(=O)N1CCn2nc(CO)cc2C1`: the “% Inhibition” value is on record as -19% and the Z score was 2.12.
As to `Cc1cc(C(C)NC(=O)C2CC(O)CN2)c(C)s1` (stereo unspecified), the “% Inhibition” value was -9% and the Z score is listed as 1.27.
`O=C(O)C[C@@H]1CCN(C(=O)c2ccc(F)cc2)C[C@@H]1CCN1CCN(c2ccccc2)CC1`: the “% Inhibition” value is reported as 19% and the Z score is on record as -2.93.
Consider `CN1CC2(C[C@H]1c1nc(-c3cccnc3)no1)CN(C(=O)CC1CCCCC1)C2`, for which the “% Inhibition” value is on record as -16% and the Z score was 1.89.
Regarding `CN(Cc1ccc(Cl)s1)c1cncc(C(N)=O)n1`, the “% Inhibition” value was -9% and the Z score was determined as 1.8.
`Cc1cnc(CN2CCC[C@H]2C(=O)N(C)C)cn1`: the “% Inhibition” value is listed as -4% and the Z score was 0.65.
Take `CCc1nc(CN(C)[C@@H](C(=O)O)c2ccc(NC(=O)C(C)(C)C)nc2)no1`: the “% Inhibition” value is -7% and the Z score is on record as 0.8.
For `C[C@H]1CC(=O)Nc2ccccc2N1C(=O)COC(=O)CNC(=O)c1cccc(F)c1`, the “% Inhibition” value was -32% and the Z score worked out at 3.73.
Consider `CCc1ccccc1OCCN1CCN(C)[C@]2(CCC(=O)N(C)CC2)C1`, for which the “% Inhibition” value came out at 6% and the Z score is -1.1.
Taken in the same sequence, the figures for `Cc1ccc(-c2ccno2)cc1S(=O)(=O)N[C@H]1CC=CC[C@@H]1C(N)=O` were -15% and 2.61.
As to `CC1CCN(C(=O)[C@H](C2CCCC2)N2CCN(C(=O)c3ccc(F)cc3)CC2)CC1`, the “% Inhibition” value is -9% and the Z score was found to be 1.58.
With `CCCn1nnn(-c2ccc(OC)c(Cl)c2)c1=O`, the “% Inhibition” value is -30% and the Z score amounted to 3.56.
Taken in the same sequence, the figures for `C=C(C)C[C@H](C)C(=O)NCc1snc(OC)c1Br` were -9% and 1.21.
As for `CC(C)Oc1ccccc1[C@H]1Nc2ccccc2C(c2ccccc2)(c2ccccc2)O1`, the “% Inhibition” value was -1% and the Z score turned out to be 0.21.
Take `COCCC(=O)Nc1cc(F)c(F)cc1Cl`: the “% Inhibition” value is listed as -10% and the Z score was 1.46.
In the case of `Cc1csc([C@@H](Nc2nccnc2C#N)C2CC2)n1`, the “% Inhibition” value is given as -10% and the Z score amounted to 1.85.
As for `COc1ccc(CNC(=O)[C@H]2CCCN(c3nccn4nc(-c5ccc(C)cc5C)cc34)C2)cc1OC`, the “% Inhibition” value is 4% and the Z score was -0.6.
The corresponding values for `CC1CN(C(=O)N[C@@H](C)c2cc3ccccc3o2)CC(=O)N1C` (stereo partly specified) are -2% and 0.32.
`COCCN1C(C)CN(S(=O)(=O)NCC(F)(F)F)CC1C` (stereo unspecified): the “% Inhibition” value came to 4% and the Z score is reported as -0.84.
As to `CC(C)OCCCNc1ccnc(CO)c1`, the “% Inhibition” value came to 3% and the Z score is recorded as -0.55.
With `CCOCc1c(C(=O)N2CCC[C@H](c3nc4ccccc4s3)C2)oc2ccccc12`, the “% Inhibition” value is given as 9% and the Z score is listed as -1.63.
For `CC(NC(=O)CC#N)C(c1ccccc1Cl)n1cccn1` (stereo unspecified), the “% Inhibition” value is on record as -1% and the Z score is 0.24.
